Results as given in paper PMC4336329 (PLoS ONE, 2015).
In all, about 310,000 compounds went through this assay and about 14,000 (4.5%) showed an effect of 50% or more. Effects have a minus sign here. The list shows a part of the results.

The compounds below were run against human ether-à-go-go-related gene (hERG) potassium channel (human, UniProt Q12809) (assay: primary screen, population patch clamp on CHO cells stably expressing hERG).
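Note: peak tail current of the secondary pulse compared with the same well before compound.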

Sequence of human ether-à-go-go-related gene (hERG) potassium channel (Q12809 whole entry, looked up): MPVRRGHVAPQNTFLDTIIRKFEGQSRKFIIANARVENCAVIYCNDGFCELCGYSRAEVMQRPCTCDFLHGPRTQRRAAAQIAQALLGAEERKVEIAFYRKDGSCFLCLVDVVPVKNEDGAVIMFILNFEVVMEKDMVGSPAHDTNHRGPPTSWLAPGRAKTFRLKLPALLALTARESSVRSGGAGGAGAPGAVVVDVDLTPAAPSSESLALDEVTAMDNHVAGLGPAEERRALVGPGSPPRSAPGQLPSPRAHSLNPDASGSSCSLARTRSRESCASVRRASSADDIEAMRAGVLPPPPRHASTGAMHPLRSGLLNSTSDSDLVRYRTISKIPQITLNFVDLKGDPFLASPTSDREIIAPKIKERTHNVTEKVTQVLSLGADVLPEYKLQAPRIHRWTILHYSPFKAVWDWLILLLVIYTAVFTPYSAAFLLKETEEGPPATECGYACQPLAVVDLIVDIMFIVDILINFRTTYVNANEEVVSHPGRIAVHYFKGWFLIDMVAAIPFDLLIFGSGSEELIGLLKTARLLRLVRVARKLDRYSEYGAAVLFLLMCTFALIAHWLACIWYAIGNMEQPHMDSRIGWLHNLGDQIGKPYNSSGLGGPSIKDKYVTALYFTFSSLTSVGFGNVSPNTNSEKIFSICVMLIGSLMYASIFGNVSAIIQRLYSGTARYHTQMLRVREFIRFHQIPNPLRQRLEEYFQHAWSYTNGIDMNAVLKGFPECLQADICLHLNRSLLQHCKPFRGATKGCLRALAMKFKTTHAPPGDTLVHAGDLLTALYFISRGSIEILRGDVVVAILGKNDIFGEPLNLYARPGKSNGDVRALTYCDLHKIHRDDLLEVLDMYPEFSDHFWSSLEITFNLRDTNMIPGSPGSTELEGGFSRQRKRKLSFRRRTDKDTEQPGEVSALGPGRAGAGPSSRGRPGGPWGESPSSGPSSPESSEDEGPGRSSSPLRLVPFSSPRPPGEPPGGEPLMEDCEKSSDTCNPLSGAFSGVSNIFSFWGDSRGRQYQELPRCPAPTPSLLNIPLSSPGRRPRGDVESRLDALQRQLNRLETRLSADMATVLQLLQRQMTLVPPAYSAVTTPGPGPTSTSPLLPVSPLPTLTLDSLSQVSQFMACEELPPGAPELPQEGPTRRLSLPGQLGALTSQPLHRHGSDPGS

Compound | hERG current change (%, negative = inhibition) at 10uM [%]
O=C(CN1C(=O)NC2(CCCC2)C1=O)N1CCN(S(=O)(=O)c2ccc(Cl)cc2)CC1 | 8.2
COc1cccc(Oc2ccc(N)cc2)c1 | -1.18
Cc1ccc2nc(SCC(=O)NC3CC3)[nH]c2c1 | 15.1
Cc1c(Cl)c([N+](=O)[O-])nn1CCCC(=O)Nc1cccc(Cl)c1Cl | -10.4
O=C(CN1C(=O)C2C3C=CC(C3)C2C1=O)N1CCc2ccccc2C1 (stereo not shown) | 5.21
Br.CCOc1ccc(-c2csc(NNC3=NCCCCC3)n2)cc1 | -21.7
CCCCC(=O)N(CCOC)c1nnc(-c2cccnc2)s1 | 5.92
Br.COc1ccc(Nc2nc(-c3sc(NC(C)=O)nc3C)cs2)cc1 | 3.32
CC(C)=CC(=O)N1CCC(N2CCC(C(=O)N3CCOCC3)CC2)CC1 | 28.3
N#Cc1ccccc1NC(=O)CSc1nnc(-c2ccccc2)n1-c1ccccc1 | 2.09
Cc1nn(CCO)c(C)c1Oc1ccccc1O | 12.3
Cc1ccsc1C1C(C#N)=C(N)Oc2n[nH]c(C)c21 (stereo not shown) | 18.7
CCC(C)N(C(=O)Cn1nnc(-c2ccc(F)cc2)n1)C1CCS(=O)(=O)C1 (stereo not shown) | -3.45
O=C(CN1C(=O)CSc2ccc(S(=O)(=O)N3CCCCC3)cc21)NCc1ccccc1Cl | -15.1
Cc1cc(C)n2nc(CC(=O)NNC(=O)c3ccc(N(C)C)cc3)nc2n1 | 26.2
COC(=O)c1c(NC(=O)Cc2ccccc2)sc2c1CCN(C(C)C)C2.Cl | -61.4
Nc1c(C(=O)CSc2nc3ccccc3o2)c(=O)[nH]c(=O)n1C1CC1 | 5.38
CN(C)C(=O)c1cn(CCC#N)nc1-c1ccc2ccccc2c1 | 19.2
CCc1ccc(NC(=O)C(C)OC(=O)c2ccc(N3CCCC3)c([N+](=O)[O-])c2)cc1 (stereo not shown) | -0.741
O=C(Cn1cc(C(=O)c2cccs2)c2ccccc21)NCc1cccs1 | -14
CCc1nnc(SCC(=O)Nc2nnc(C)s2)n1CC1CCCO1 (stereo not shown) | 2.08
CN(C)c1ccc(C2=NOC(CN3C(=O)c4ccccc4S3(=O)=O)C2)cc1 (stereo not shown) | 11.8

Compound | hERG current change (%, negative = inhibition) at 10uM [%]
COc1ccccc1-c1cc(C(=O)NC(C)c2ccccc2)no1 (stereo not shown) | 9.56
CC1CCCN(C(=S)SCC(=O)O)C1 (stereo not shown) | 19.3
CCN1C(=O)[C@H]2[C@@H](c3ccc(C)cc3)N3C(=O)N(c4ccc(C)cc4)C(=O)[C@@]3(CC)[C@H]2C1=O | 9.31
COc1ccc(-n2nc3ccccc3n2)cc1 | -17.5
CC(C)CCOc1ccccc1C(N)=O | 14.4
Nc1c(C(=O)NCc2ccco2)nnn1CC(=O)Nc1ccc2c(c1)OCO2 | -46
O=C(NCc1ccncc1)Nc1cccc([N+](=O)[O-])c1 | -17.2
O=C(Nc1ccccn1)Nc1ccccc1Cl | 23.2
CCC(CC)C(=O)N=C1SC2CS(=O)(=O)CC2N1CCc1ccc(OC)c(OC)c1 (stereo not shown) | -10.7
CCCn1c(SCC(=O)Nc2cc(S(=O)(=O)N3CCOCC3)ccc2OC)n[nH]c1=O | 14.1
C=CC[n+]1c(-c2ccc(Cl)cc2Cl)csc1Nc1ccc(NC(C)=O)cc1.[Cl-] | 8.41
CC(C)(C)C(=O)N1N=C(c2ccc(NS(C)(=O)=O)cc2)CC1c1cccs1 (stereo not shown) | -18.6
FC(F)(F)c1cccc(N/N=C/c2ccccc2)c1 | -2.54
Cc1cc(-c2nnc(SCC(=O)Nc3ccccc3)n2C)no1 | 4.56
C=CCn1c(SCC(=O)Nc2c(C)nn(Cc3ccccc3)c2C)nnc1C(O)c1ccccc1 (stereo not shown) | -1.47
CSc1ccccc1NC(=O)COC(=O)Cc1cccs1 | -2.26
Cc1ccccc1Cn1nnc(C(=O)Nc2cccc(C)c2C)c1N | -18.1
Cc1cc(C(F)F)n2nc(C(=O)Nc3cc(C)on3)nc2n1 | -6.44
CCOC(=O)c1sc(-c2ccc(Br)cc2)cc1N | -8.65
CCC(=O)c1cn(CC(=O)Nc2ccc(C)cc2)c2ccccc12 | 8.39
CSc1ccc(-c2nc(CN3CCCCC3c3cccnc3)c(C)o2)cc1 (stereo not shown) | -19.8
CCN(CC)S(=O)(=O)c1cccc(NC(=O)c2cncc(Br)c2)c1 | -69.9

Compound | hERG current change (%, negative = inhibition) at 10uM [%]
COc1cc(C2C(C(=O)c3ccco3)=C(O)C(=O)N2c2cc(C)on2)ccc1OCc1ccccc1 (stereo not shown) | 19.8
O=C(CNc1cc(S(=O)(=O)N2CCOCC2)ccc1NCC1CCCO1)Nc1ccccc1F (stereo not shown) | -15.4
CC(=O)c1cccc(NC(=O)/C(=C\c2cccnc2)NC(=O)c2ccc(C)cc2)c1 | -8.57
O=c1c2cc(N3CCOCC3)ccc2[nH]c(=S)n1CCCN1CCCCCC1 | -17
COc1cc2c(cc1OC)CN(C(=S)NC(=O)c1ccccc1)CC2 | 1.3
COc1ccc(NC(=O)C2CCN(S(=O)(=O)c3ccc(N4CCCC4=O)cc3)CC2)cc1OC | 17.4
COc1ccc(/C=N\NC(=O)CNC(=O)C2COc3ccccc3O2)cc1[N+](=O)[O-] (stereo not shown) | -73.8
CCc1ccccc1N(CC(=O)NC(C)(C)CC)C(=O)CCC(=O)Nc1nccs1 | -18.3
CCOc1ccc(C2c3c(oc4ccccc4c3=O)C(=O)N2c2ccc(C)cn2)cc1OC (stereo not shown) | -20.8
O=C(NCC(c1ccco1)N1CCCC1)c1cccc(S(=O)(=O)Nc2ccc(Br)cc2)c1 (stereo not shown) | -4.63
CCN(CC(=O)Nc1sc2c(c1C#N)CCC(C)C2)CC(=O)NC1CCS(=O)(=O)C1 (stereo not shown) | -20.9
COc1c(C)cc(S(=O)(=O)NCCN2CCOCC2)c(C)c1C | -1.85
COc1ccccc1NC(=O)C1CCCN(S(=O)(=O)c2c(C)noc2C)C1 (stereo not shown) | -14.5
CCCC1COC(Cn2cncn2)(c2ccc(C)cc2)O1 (stereo not shown) | 4.61
COc1ccc(N(C(C)C(=O)N/N=C(\C)C(C)(C)C)S(C)(=O)=O)cc1 (stereo not shown) | 22.5
OCCCNC(=S)Nc1ccc(Oc2ccccc2)cc1 | 1.06
CCCN(CCC)S(=O)(=O)c1ccc(C(=O)Nc2ccc(S(=O)(=O)Nc3nnc(CC)s3)cc2)cc1 | 17.7
CN(C/C=C/C#CC(C)(C)C)Cc1cccc2ccccc12.Cl | 11.3
CCOC(=O)c1ccc2[nH]c3c(c2c1)CCCC3NC=O (stereo not shown) | 11.5
Cc1ccc(CCNC(=O)CN2C(=O)COc3ccc(S(=O)(=O)N4CCC(C)CC4)cc32)cc1 | 8.66
Cn1c(=O)n(CCOc2ccc([N+](=O)[O-])cc2)c2ccccc21 | -65.3
Cc1ccc(S(=O)(=O)n2ccc(OC(=O)c3cccs3)n2)cc1 | 12.2

Compound | hERG current change (%, negative = inhibition) at 10uM [%]
Cc1n[nH]c(C)c1Cc1ccc(C(=O)O)cc1 | 13.9
Cc1cc(C)n2nc(SCC(=O)N(C)Cc3ccccc3)nc2n1 | -2.03
Cc1cc(Cl)ccc1OCC(=O)Nc1ccc2oc(=O)ccc2c1 | 10.1
COc1ccc(NC(=O)CS(=O)CC(=O)NCc2cccc(C(F)(F)F)c2)cc1 (stereo not shown) | -0.402
Cc1nc2cc(C(F)(F)F)ccc2n1CCNc1nc(-c2cc(Cl)c(N)c(Cl)c2)cs1 | 11.3
Cc1c(CN2CCCCC2)c(O)n(CCO)c(=O)c1C#N | 13.4
CC(=O)Nc1ccc(S(=O)(=O)NCc2ccc(C(=O)NCc3ccc(Cl)cc3)cc2)cc1 | -6.91
Cc1ccc(S(=O)(=O)NCc2c(Cl)cccc2Oc2ccccc2)cc1 | 16
C(=N\c1nc2ccccc2n1CCN1CCCCC1)/c1cccs1 | -15.9
CCOc1ccc(S(=O)(=O)n2cnc3ccccc32)cc1 | 20.4
O=C(O)CCCNC(=O)c1cncc(Br)c1 | 12.2
Cc1ccc2oc(=O)c3cc(C(=O)Nc4cc(-c5cccc(F)c5)no4)sc3c2c1 | -0.501
O=C1CC(NCC2CCCO2)C(=O)N1c1ccc(F)cc1 (stereo not shown) | 6.92
Cc1noc(/C=C/c2ccccn2)c1[N+](=O)[O-] | 13.3
CCOC(=O)CNC(=O)CSc1nc(N)cc(N)n1 | 9.93
CSc1nc2c(c(=O)[nH]c(=O)n2C)n1Cc1ccc(Cl)cc1 | 6.47
Cc1ccc(/C=C2\C(=O)NC(=S)N(c3cccc(F)c3)C2=O)o1 | 2.73
CN(CC(=O)Nc1ccccc1Cl)C(=O)C1CCN(C(=O)c2ccc(F)cc2)CC1 | -20.9
O=C(COC(=O)CCCOc1ccccc1)NC1CCS(=O)(=O)C1 (stereo not shown) | -3.01
COc1ccc(NCc2nnc(SCC(=O)Nc3ccccc3OC)o2)cc1 | -5.75
O=C(NC12CC3CC(CC(C3)C1)C2)N1CCCC(CO)C1 (stereo not shown) | 4.04
O=C(NCc1cccs1)C1CC(=O)N(c2ccccc2)C1 (stereo not shown) | -9.33
